Results are given in words; binding and its absence hold for the method and conditions named. Some entries that bind do so weakly or less than the wild type. Tags and fused reporters may be left off the sequences shown.
Legend:
Assay in all cases: two-hybrid; yeast two-hybrid in S. cerevisiae PJ69-4a; pGBT9.BS and pGAD.GH fusions; growth of four decimal dilutions on -Leu -Trp -His medium with 1 mM 3AT, 28°C
[1] = target: ICR2, yeast two-hybrid fusion (pGAD-ICR2) (Arabidopsis) (UniProt Q9ZQC5)
[2] = target: T1, ICR3, yeast two-hybrid fusion (Arabidopsis) (UniProt Q9LSS5)
T1 sequence: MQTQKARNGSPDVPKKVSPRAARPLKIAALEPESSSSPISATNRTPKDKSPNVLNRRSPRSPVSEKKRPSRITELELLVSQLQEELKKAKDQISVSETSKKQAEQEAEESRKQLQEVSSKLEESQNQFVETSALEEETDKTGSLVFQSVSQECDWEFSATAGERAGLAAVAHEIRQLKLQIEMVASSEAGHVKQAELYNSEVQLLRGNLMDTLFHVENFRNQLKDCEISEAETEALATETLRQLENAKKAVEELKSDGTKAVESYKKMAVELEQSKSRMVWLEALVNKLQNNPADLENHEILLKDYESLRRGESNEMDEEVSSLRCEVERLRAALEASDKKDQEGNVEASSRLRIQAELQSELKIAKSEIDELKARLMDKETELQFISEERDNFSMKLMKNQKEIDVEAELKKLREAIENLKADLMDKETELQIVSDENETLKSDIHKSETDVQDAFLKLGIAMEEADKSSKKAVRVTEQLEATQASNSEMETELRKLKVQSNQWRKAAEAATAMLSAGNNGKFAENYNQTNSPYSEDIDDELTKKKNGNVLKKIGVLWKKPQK

Sequences of proteins named here, by UniProt entry; tags and fusion partners are left off.
UniProt O82481: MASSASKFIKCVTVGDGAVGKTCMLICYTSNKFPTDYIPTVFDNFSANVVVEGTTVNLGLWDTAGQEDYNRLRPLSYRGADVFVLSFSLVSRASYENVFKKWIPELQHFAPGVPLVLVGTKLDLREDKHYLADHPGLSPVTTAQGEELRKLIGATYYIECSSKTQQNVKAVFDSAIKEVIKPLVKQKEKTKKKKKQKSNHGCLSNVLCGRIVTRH
UniProt Q38919: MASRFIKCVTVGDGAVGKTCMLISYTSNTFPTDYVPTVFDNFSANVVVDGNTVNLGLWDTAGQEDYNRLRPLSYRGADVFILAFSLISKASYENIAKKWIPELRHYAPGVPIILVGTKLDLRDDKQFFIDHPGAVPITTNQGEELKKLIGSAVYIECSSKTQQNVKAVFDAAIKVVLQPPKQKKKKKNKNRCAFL
UniProt Q38937: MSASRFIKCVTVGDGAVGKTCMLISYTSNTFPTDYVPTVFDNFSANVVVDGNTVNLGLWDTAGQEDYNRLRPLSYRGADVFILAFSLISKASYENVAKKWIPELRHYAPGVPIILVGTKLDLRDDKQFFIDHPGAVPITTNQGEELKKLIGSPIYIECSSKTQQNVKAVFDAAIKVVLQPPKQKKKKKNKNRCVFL
UniProt O82480: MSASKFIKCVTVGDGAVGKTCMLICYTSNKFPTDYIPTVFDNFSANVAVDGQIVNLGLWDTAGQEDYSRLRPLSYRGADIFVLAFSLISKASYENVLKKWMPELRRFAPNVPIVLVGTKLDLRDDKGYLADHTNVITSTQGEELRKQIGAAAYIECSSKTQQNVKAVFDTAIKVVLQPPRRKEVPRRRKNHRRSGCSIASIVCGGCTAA

[3] = target: T2, ICR5, yeast two-hybrid fusion (Arabidopsis) (UniProt Q8VYU8)
T2 sequence: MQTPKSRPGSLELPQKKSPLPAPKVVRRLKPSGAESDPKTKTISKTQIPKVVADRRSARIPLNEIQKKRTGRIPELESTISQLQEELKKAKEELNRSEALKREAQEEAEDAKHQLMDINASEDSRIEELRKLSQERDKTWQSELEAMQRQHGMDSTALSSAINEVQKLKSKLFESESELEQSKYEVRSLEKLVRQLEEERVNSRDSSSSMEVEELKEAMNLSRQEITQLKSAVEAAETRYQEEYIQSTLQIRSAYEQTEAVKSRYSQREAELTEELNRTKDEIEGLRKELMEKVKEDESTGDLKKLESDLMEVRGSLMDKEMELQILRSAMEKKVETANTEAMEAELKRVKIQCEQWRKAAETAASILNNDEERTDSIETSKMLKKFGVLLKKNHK

[4] = target: ROP11, yeast two-hybrid fusion (pGBT ROP11) (UniProt O82481)
[5] = target: ROP2, yeast two-hybrid fusion (pGBT ROP2) (UniProt Q38919)
[6] = target: ROP4, yeast two-hybrid fusion (pGBT ROP4) (UniProt Q38937)
[7] = target: ROP9, yeast two-hybrid fusion (pGBT ROP9) (UniProt O82480)

B1: ICR2, yeast two-hybrid fusion (pGAD-ICR2) (protein, UniProt Q9ZQC5 1-583)
chain: MQTPKPRPGSLEVPQKKSPASTPKTARKLKTSESDPVSSPNTKIRTPKTQSPKVVADRRSPRTPVNEIQKKRTGKTPELASQISQLQEELKKAKEQLSASEALKKEAQDQAEETKQQLMEINASEDSRIDELRKLSQERDKAWQSELEAMQRQHAMDSAALSSTMNEVQKLKAQLSESENVENLRMELNETLSLVEKLRGELFDAKEGEAQAHEIVSGTEKQLEIANLTLEMLRSDGMKMSEACNSLTTELEQSKSEVRSLEQLVRQLEEEDEARGNANGDSSSVEELKEEINVARQEISQLKSAVEVTERRYHEEYIQSTLQIRTAYEQVDEVKSGYAQREAELGEELKKTKAERDSLHERLMDKEAKLRILVDENEILNSKIKEKEEVYLNLENSLNQNEPEDTGELKKLESDVMELRANLMDKEMELQSVMSQYESLRSEMETMQSEKNKAIDEALAKLGSLTEEADKSGKRAENATEQLGAAQVTNTELEAELRRLKVQCDQWRKAAEAAATMLSGGNNNNNSNGKYVERTGSLESPLRRRNVNMSPYMGETDDELSSPKKKNGSMLKKIGVLLKKSQK
- binding [1]: no binding
- binding [2]: no binding
- binding [3]: no binding
- binding [4]: binds
- binding [5]: binds
- binding [6]: binds
- binding [7]: binds

Source: publication PMC9845754
